{"source": "ChEMBL document CHEMBL4888484", "about": "“Replenishing the malaria drug discovery pipeline: Screening and hit evaluation of the MMV Hit Generation Library 1 (HGL1) against asexual blood stage Plasmodium falciparum ,using a nano luciferase reporter read-out” (2022)", "note": "In all, about 150,000 compounds went through this assay and about 540 (0.36%) showed an effect of 50% or more. The list shows a part of the results.", "data": [{"tested_on": "Plasmodium falciparum", "test": "Primary screen in NF54 nanoGlo assay, in single point, at 2uM, 72h; a lower Z score goes with more inhibition", "format": "functional, Erythrocyte", "conditions": "timepoint 72 hour", "units": {"% Inhibition": "%"}, "values": [{"smiles": "Cc1cc(CN2CCN(C(=O)c3c(C)c(C)n[nH]c3=O)CC2)on1", "% Inhibition": -2, "Z score": 0.25}, {"smiles": "CCCc1nc(-c2cc3cc(C)ccc3nc2NCc2ccc(OC)cc2)no1", "% Inhibition": -3, "Z score": 0.5}, {"smiles": "COc1ccc(N2C(=O)CN(Cc3ccccc3F)[C@H]3CS(=O)(=O)C[C@H]32)cc1Cl", "% Inhibition": -1, "Z score": 0.11}, {"smiles": "COc1ccc(C(=O)NCC#CCN(C(C)C)C(C)C)cc1OC", "% Inhibition": -4, "Z score": 0.71}, {"smiles": "CN(C[C@H]1CCCCN1C)C(=O)c1cn[nH]c1", "% Inhibition": -10, "Z score": 1.32}, {"smiles": "COCCN(Cc1cccc(O)c1)CC1CCN(Cc2ccccc2F)CC1", "% Inhibition": -1, "Z score": 0.12}, {"smiles": "COc1ccc(-c2c(NC(=O)c3ccc(F)cc3)n(-c3cccc(C)c3)nc(C)c2=O)cc1", "% Inhibition": 32, "Z score": -3.59}, {"smiles": "Cc1nc2ccccc2n1CCNc1ncccc1C#N", "% Inhibition": -6, "Z score": 0.79}, {"smiles": "COc1cccc(CN(C)C(=O)[C@@H]2CCCN2C(=O)c2ccccn2)n1", "% Inhibition": -2, "Z score": 0.19}, {"smiles": "O=C(c1c[nH]c(=O)c(Cl)c1)N1CCc2ccccc21", "% Inhibition": -10, "Z score": 1.56}, {"smiles": "Fc1cccc(CCn2ccc(-c3cccc(-c4cnccn4)c3)n2)c1", "% Inhibition": 0, "Z score": 0.06}, {"smiles": "CCOC1CC(N(C)C(=O)c2cc(C)n(-c3cc(C)on3)c2C)C1(C)C", "note": "(stereo not drawn)", "% Inhibition": 8, "Z score": -1.33}, {"smiles": "CC[C@H](C)Cc1nc(-c2cc(C#N)c[nH]2)n(CC(C)(C)O)n1", "% Inhibition": -11, "Z score": 1.01}, {"smiles": "CCc1nc2c(c(OC3CCN(C(=O)c4sccc4C)CC3)n1)CCOCC2", "% Inhibition": -4, "Z score": 0.44}, {"smiles": "CC12C(N)(c3ccccc3)NC(=O)C1(C#N)C2(C#N)C#N", "note": "(stereo not drawn)", "% Inhibition": -9, "Z score": 1.47}, {"smiles": "Cc1nc(N2CCC(C)CC2)nc2oc(-c3ccccc3)nc12", "% Inhibition": -6, "Z score": 0.79}, {"smiles": "COc1ccc(N2C[C@@H](c3nnc(NC(=O)COc4ccccc4C)o3)CC2=O)cc1", "% Inhibition": -4, "Z score": 0.56}, {"smiles": "O=C1CC[C@@H](C(=O)N2CC(Oc3nc4ccccc4s3)C2)N1", "% Inhibition": -15, "Z score": 1.68}, {"smiles": "Cc1ccc(C)n1-c1c(C(=O)N2CCC(Cc3ccccc3)CC2)sc2ncccc12", "% Inhibition": -21, "Z score": 1.93}, {"smiles": "O=C(Nc1ccc(F)cc1)N1CCc2ccccc2[C@H]1c1ccccc1Cl", "% Inhibition": 3, "Z score": -0.45}, {"smiles": "CC(COC1CCOC1)NC(=O)NC1CCN(C(C)C)C1=O", "note": "(stereo not drawn)", "% Inhibition": 16, "Z score": -1.86}, {"smiles": "CC(C)c1nccn1Cc1ccncc1F", "% Inhibition": 0, "Z score": -0.05}, {"smiles": "Cc1cc(C)nc(N[C@@H](Cc2ccccc2)C(=O)N2CCn3c(nnc3C(F)(F)F)C2)n1", "% Inhibition": 10, "Z score": -1.22}, {"smiles": "Cc1ccc(CN(Cc2ccc(F)cc2)C(=O)CN(C(=O)c2ccccc2Cl)C2CCCCC2)s1", "% Inhibition": 11, "Z score": -1.54}, {"smiles": "COC1(C)CCN(C(=O)[C@@H]2C[C@H](C)CC(=O)N2)CC1", "% Inhibition": 3, "Z score": -0.42}, {"smiles": "COc1cccc(NC(=O)[C@@H]2Cc3[nH]cnc3C3(CCCC3)N2)c1", "% Inhibition": -10, "Z score": 1.58}, {"smiles": "Cn1c(=O)ccc2ccc(NC(=O)N3CCC[C@H](c4ccc(F)c(F)c4)C3)cc21", "% Inhibition": -3, "Z score": 0.51}, {"smiles": "CO[C@@H](C)Cn1ccc(=O)c2cccc(OC(F)(F)F)c21", "% Inhibition": -8, "Z score": 0.74}, {"smiles": "COc1cc(C(=O)NCCN2CCOCC2)cc2occc12", "% Inhibition": 31, "Z score": -4.47}, {"smiles": "CCC(C)N(Cc1ccccc1)CC(O)COC(C)(C)C", "note": "(stereo not drawn)", "% Inhibition": -3, "Z score": 0.43}, {"smiles": "Cc1cc(C(=O)NC2(C(F)F)CC2)oc1C", "% Inhibition": -6, "Z score": 1.2}, {"smiles": "CC(C)c1cc(=O)n(Cc2nccn2C(F)F)cn1", "% Inhibition": -5, "Z score": 0.53}, {"smiles": "Cc1nc(CN[C@@H](C)c2ccc(N3CCN(C)CC3)cc2)cs1", "% Inhibition": -13, "Z score": 1.28}, {"smiles": "Nc1ccc(OCC(F)F)c(Cl)c1", "% Inhibition": 0, "Z score": 0.06}, {"smiles": "COc1cc(OC)cc(C(=O)NC(C(C)C)C(C)C)c1", "% Inhibition": 0, "Z score": 0.03}, {"smiles": "O=C(NCc1ccccn1)C(F)(F)F", "% Inhibition": 7, "Z score": -1.11}, {"smiles": "O=C(NCC1CCN(c2cc(O)ncn2)CC1)c1ccccc1", "% Inhibition": -9, "Z score": 1.66}, {"smiles": "Cc1ccccc1OCCN1C(=O)N[C@@]2(CCCCc3ccccc32)C1=O", "% Inhibition": -3, "Z score": 0.66}, {"smiles": "CCC(=O)Nc1nnc([C@H]2CC(=O)N(c3ccc(OC(F)(F)F)cc3)C2)o1", "% Inhibition": -7, "Z score": 1.07}, {"smiles": "C[C@H](NC(=O)c1coc(COc2ccc3ncccc3c2)n1)c1cnn(C)c1", "% Inhibition": 5, "Z score": -0.66}, {"smiles": "COc1cc(CN[C@H]2C[C@H](O)C23CCOCC3)on1", "% Inhibition": -14, "Z score": 1.44}, {"smiles": "N#Cc1c(-c2ccoc2)cc(-c2cccc(C(=O)O)c2)nc1N", "% Inhibition": 1, "Z score": -0.18}, {"smiles": "Cc1nc2c(c(=O)n1C)CN([C@@H](C)C(=O)Nc1ccc(F)cc1)C2", "% Inhibition": 6, "Z score": -1.08}, {"smiles": "CCn1c(CN2CCN(c3ncccn3)CC2)nc2cc(S(=O)(=O)N3CCCCC3)ccc21", "% Inhibition": -4, "Z score": 0.62}, {"smiles": "Cn1cnc(CCNC(=O)C2(C)COC2)c1", "% Inhibition": -2, "Z score": 0.45}, {"smiles": "O=c1ccc(C(F)(F)F)nn1Cc1cc2n(n1)CCC2", "% Inhibition": -1, "Z score": 0.14}, {"smiles": "CC(C)c1ccc(S(=O)(=O)Nc2ccc(CCc3nc4ccccc4n3-c3ccccc3)cc2)cc1", "% Inhibition": 6, "Z score": -0.76}, {"smiles": "O=C(Nc1ccnn1-c1ccc(Cl)cc1)c1ccoc1Cl", "% Inhibition": -4, "Z score": 0.42}, {"smiles": "CCc1nc(C)c(C(C)N(C)S(=O)(=O)N2CCCC(C)C2)s1", "note": "(stereo not drawn)", "% Inhibition": 1, "Z score": -0.08}, {"smiles": "COc1ccc(-c2cc(C[C@@H]3CC[C@H](O)[C@@H](CNCc4ccccc4)O3)no2)cc1", "% Inhibition": -9, "Z score": 1.19}, {"smiles": "CCO[C@H]1C[C@@H](NC(=O)c2ccc(O)c(CC)c2)C1", "% Inhibition": -3, "Z score": 0.36}, {"smiles": "Cc1csc(C(C)(C)NCCCCC#N)n1", "% Inhibition": -9, "Z score": 1.15}, {"smiles": "CS(=O)(=O)CCn1cnc(-c2ccccc2)c1-c1nccs1", "% Inhibition": -9, "Z score": 1.13}, {"smiles": "CS(=O)(=O)N1CCO[C@@H](CNC(=O)Nc2ccc3[nH]ncc3c2)C1", "% Inhibition": 2, "Z score": -0.32}, {"smiles": "CC(C)N(C[C@H](C)O)C(=O)CC1CCC(C(F)(F)F)CC1", "note": "(stereo partly drawn)", "% Inhibition": -4, "Z score": 0.69}, {"smiles": "COc1ccc(CC(=O)Nc2cc(C)no2)cc1C", "% Inhibition": 5, "Z score": -0.82}, {"smiles": "CN(Cc1ccccc1)C1(CNC(=O)[C@H]2CCCOC2)CCC1", "% Inhibition": -10, "Z score": 1.73}, {"smiles": "O=c1c2cc(F)c(F)cc2ncn1C[C@@H](O)CC1CCCC1", "% Inhibition": 37, "Z score": -0.84}, {"smiles": "COc1ccc(OC)c(NC(=O)CN2CCc3[nH]c4c(C)ccc(C)c4c(=O)c3C2)c1", "% Inhibition": 8, "Z score": -0.96}, {"smiles": "CN(CC[C@H](O)C(F)(F)F)Cc1ccccc1", "% Inhibition": 33, "Z score": -4.3}, {"smiles": "CNC(=O)C(C)(C)CNc1nc(C)cc(OC)n1", "% Inhibition": 9, "Z score": -1.02}, {"smiles": "CNS(=O)(=O)CC(=O)N(CC(C)C)[C@@H](C)c1ccccc1C", "% Inhibition": 0, "Z score": 0.01}, {"smiles": "O=C(CCNc1cnc2ccccc2n1)N1CCOCC1", "% Inhibition": 3, "Z score": -0.46}, {"smiles": "Cc1noc(C2CN(C(=O)[C@H]3CC(=O)N(c4cccc(Br)c4)C3)C2)n1", "% Inhibition": -14, "Z score": 2.58}, {"smiles": "Cc1nccc(NC(=O)N2CCC(C)(O)CC2)c1Br", "% Inhibition": -10, "Z score": 0.92}, {"smiles": "CN(C)C[C@]1(CO)CCCN(C(=O)c2cccc3c2CCC3=O)C1", "% Inhibition": -12, "Z score": 1.23}, {"smiles": "CCc1ccc(CN2C(=O)c3c(C(=O)OC)ncn3C[C@@]2(C)C(=O)NC2CCCCCC2)cc1", "% Inhibition": 38, "Z score": -5.49}, {"smiles": "CNc1nc(N2CCCn3nc(CCC(=O)O)cc3C2)nc2c1CCC2", "% Inhibition": -14, "Z score": 2.81}, {"smiles": "N#CC1(C#N)C(c2ccccc2)CC(O)(C(F)(F)F)C(C(=O)C(F)(F)F)C1c1ccccc1", "note": "(stereo not drawn)", "% Inhibition": 34, "Z score": -3.85}, {"smiles": "Cc1cc2c(cc1C)CN(c1cccc(C(=O)NC[C@@H]3C[C@H](F)CN3)c1)C2", "% Inhibition": -5, "Z score": 1.08}, {"smiles": "O=C(COc1ccccc1)Nc1cnc(N2CCCC2)nc1", "% Inhibition": -16, "Z score": 2.94}, {"smiles": "Cc1ccc(NC(=O)Cn2nc3ccc(C(=O)NCc4ccccc4)cn3c2=O)cc1F", "% Inhibition": -22, "Z score": 1.91}, {"smiles": "Cc1noc(C)c1CO[C@H]1COCC[C@@H]1NC(=O)c1cccc(N(C)C)c1", "% Inhibition": 2, "Z score": -0.34}, {"smiles": "Cn1cc(C(=O)NC[C@H]2CCc3ccccc32)c(=O)c2cnn(C)c21", "% Inhibition": -6, "Z score": 0.78}, {"smiles": "Cc1noc(Cc2ccc(NCc3nnc4n3CCCC4)cc2)n1", "% Inhibition": -2, "Z score": 0.29}, {"smiles": "COCC(=O)N(Cc1cc(-c2ccc(C)c(C)c2)on1)CC(C)C", "% Inhibition": -14, "Z score": 1.62}, {"smiles": "COc1cccc([C@H]2CCN(C(=O)N[C@H]3CC[C@H](O)CC3)C2)c1OC", "% Inhibition": 11, "Z score": -0.99}, {"smiles": "CCc1nnc(NC(=O)c2sc3ncccc3c2N)s1", "% Inhibition": -1, "Z score": 0.15}, {"smiles": "C=C(C)Cn1ccc(-c2cccc(-c3nc(C)cnc3C)c2)n1", "% Inhibition": -2, "Z score": 0.27}, {"smiles": "CN1CCC(N(CCc2ccccc2)C(=O)c2cncc(Cl)c2)CC1", "% Inhibition": -11, "Z score": 1.41}, {"smiles": "CNS(=O)(=O)c1cccc(NC(=O)N2CCN(c3oc(C4CC4)nc3C#N)CC2)c1", "% Inhibition": 6, "Z score": -0.91}, {"smiles": "Cc1ccc(C(=O)NC2(C)CCC2)cc1OCCCN", "% Inhibition": 6, "Z score": -1.13}, {"smiles": "COc1cccc(CN2CC3(CCN(C(=O)c4ccncc4)CC3)CC2=O)c1", "% Inhibition": -5, "Z score": 0.48}, {"smiles": "Cc1c(-c2ccc(C(=O)NC3CCC3)cc2)cnn1C(F)F", "% Inhibition": 0, "Z score": 0.02}]}]}
